In PMC9911399, “Two distinct binding modes provide the RNA-binding protein RbFox with extraordinary sequence specificity” one finds binding signal data, which are given here for 31 molecules.

To fix the notation:
T1: RBFOX1 RRM (Homo sapiens, UniProt Q9NWB1 109-208)
T1 sequence: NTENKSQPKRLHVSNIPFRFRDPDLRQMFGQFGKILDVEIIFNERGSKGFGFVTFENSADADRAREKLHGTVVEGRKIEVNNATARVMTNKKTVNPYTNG

B1: AUGCGUC (DNA:RNA)
RNA: GGGAGACCGGAAUUCAGAUUGUCCAUGCGUCUUAAAUCCCGUCGUAGCCACCA
DNA 1: CAATCTGAATTCCGGTCTCCC
DNA 2: TGGTGGCTACGACGGGATT
B2: CCAGACC (DNA:RNA)
RNA: B1 RNA with A25C, U26C, G27A, C28G, G29A, U30C
DNA 1: CAATCTGAATTCCGGTCTCCC
DNA 2: TGGTGGCTACGACGGGATT
B3: UAAUGUU (DNA:RNA)
RNA: B1 RNA with A25U, U26A, G27A, C28U, C31U
DNA 1: CAATCTGAATTCCGGTCTCCC
DNA 2: TGGTGGCTACGACGGGATT
B4: UUUCCCU (DNA:RNA)
RNA: B1 RNA with A25U, G27U, G29C, U30C, C31U
DNA 1: CAATCTGAATTCCGGTCTCCC
DNA 2: TGGTGGCTACGACGGGATT
B5: CGUGCGC (DNA:RNA)
RNA: B1 RNA with A25C, U26G, G27U, C28G, G29C, U30G
DNA 1: CAATCTGAATTCCGGTCTCCC
DNA 2: TGGTGGCTACGACGGGATT
B6: CAGACCA (DNA:RNA)
RNA: B1 RNA with A25C, U26A, C28A, G29C, U30C, C31A
DNA 1: CAATCTGAATTCCGGTCTCCC
DNA 2: TGGTGGCTACGACGGGATT
B7: UAGUGGU (DNA:RNA)
RNA: B1 RNA with A25U, U26A, C28U, U30G, C31U
DNA 1: CAATCTGAATTCCGGTCTCCC
DNA 2: TGGTGGCTACGACGGGATT
B8: GUACUAA (DNA:RNA)
RNA: B1 RNA with A25G, G27A, G29U, U30A, C31A
DNA 1: CAATCTGAATTCCGGTCTCCC
DNA 2: TGGTGGCTACGACGGGATT
B9: ACAUUGA (DNA:RNA)
RNA: B1 RNA with U26C, G27A, C28U, G29U, U30G, C31A
DNA 1: CAATCTGAATTCCGGTCTCCC
DNA 2: TGGTGGCTACGACGGGATT
B10: AGGGCAC (DNA:RNA)
RNA: B1 RNA with U26G, C28G, G29C, U30A
DNA 1: CAATCTGAATTCCGGTCTCCC
DNA 2: TGGTGGCTACGACGGGATT
B11: GAUGGAC (DNA:RNA)
RNA: B1 RNA with A25G, U26A, G27U, C28G, U30A
DNA 1: CAATCTGAATTCCGGTCTCCC
DNA 2: TGGTGGCTACGACGGGATT
B12: UUAGUUU (DNA:RNA)
RNA: B1 RNA with A25U, G27A, C28G, G29U, C31U
DNA 1: CAATCTGAATTCCGGTCTCCC
DNA 2: TGGTGGCTACGACGGGATT
B13: GAGACAA (DNA:RNA)
RNA: B1 RNA with A25G, U26A, C28A, G29C, U30A, C31A
DNA 1: CAATCTGAATTCCGGTCTCCC
DNA 2: TGGTGGCTACGACGGGATT
B14: GUCAUGC (DNA:RNA)
RNA: B1 RNA with A25G, G27C, C28A, G29U, U30G
DNA 1: CAATCTGAATTCCGGTCTCCC
DNA 2: TGGTGGCTACGACGGGATT
B15: GGUAUAC (DNA:RNA)
RNA: B1 RNA with A25G, U26G, G27U, C28A, G29U, U30A
DNA 1: CAATCTGAATTCCGGTCTCCC
DNA 2: TGGTGGCTACGACGGGATT
B16: CGGAAGU (DNA:RNA)
RNA: B1 RNA with A25C, U26G, C28A, G29A, U30G, C31U
DNA 1: CAATCTGAATTCCGGTCTCCC
DNA 2: TGGTGGCTACGACGGGATT
B17: GAAUGCA (DNA:RNA)
RNA: B1 RNA with A25G, U26A, G27A, C28U, U30C, C31A
DNA 1: CAATCTGAATTCCGGTCTCCC
DNA 2: TGGTGGCTACGACGGGATT
B18: UGGACAA (DNA:RNA)
RNA: B1 RNA with A25U, U26G, C28A, G29C, U30A, C31A
DNA 1: CAATCTGAATTCCGGTCTCCC
DNA 2: TGGTGGCTACGACGGGATT
B19: UCGAGCC (DNA:RNA)
RNA: B1 RNA with A25U, U26C, C28A, U30C
DNA 1: CAATCTGAATTCCGGTCTCCC
DNA 2: TGGTGGCTACGACGGGATT
B20: GAGGUAA (DNA:RNA)
RNA: B1 RNA with A25G, U26A, C28G, G29U, U30A, C31A
DNA 1: CAATCTGAATTCCGGTCTCCC
DNA 2: TGGTGGCTACGACGGGATT
B21: CUCUAAA (DNA:RNA)
RNA: B1 RNA with A25C, G27C, C28U, G29A, U30A, C31A
DNA 1: CAATCTGAATTCCGGTCTCCC
DNA 2: TGGTGGCTACGACGGGATT
B22: UGGUUUC (DNA:RNA)
RNA: B1 RNA with A25U, U26G, C28U, G29U
DNA 1: CAATCTGAATTCCGGTCTCCC
DNA 2: TGGTGGCTACGACGGGATT
B23: UUUGCUA (DNA:RNA)
RNA: B1 RNA with A25U, G27U, C28G, G29C, C31A
DNA 1: CAATCTGAATTCCGGTCTCCC
DNA 2: TGGTGGCTACGACGGGATT
B24: UUGCAGU (DNA:RNA)
RNA: B1 RNA with A25U, G29A, U30G, C31U
DNA 1: CAATCTGAATTCCGGTCTCCC
DNA 2: TGGTGGCTACGACGGGATT
B25: UAUUGAU (DNA:RNA)
RNA: B1 RNA with A25U, U26A, G27U, C28U, U30A, C31U
DNA 1: CAATCTGAATTCCGGTCTCCC
DNA 2: TGGTGGCTACGACGGGATT
B26: CUAGUAC (DNA:RNA)
RNA: B1 RNA with A25C, G27A, C28G, G29U, U30A
DNA 1: CAATCTGAATTCCGGTCTCCC
DNA 2: TGGTGGCTACGACGGGATT
B27: AAUUUCU (DNA:RNA)
RNA: B1 RNA with U26A, G27U, C28U, G29U, U30C, C31U
DNA 1: CAATCTGAATTCCGGTCTCCC
DNA 2: TGGTGGCTACGACGGGATT
B28: UAGCCCA (DNA:RNA)
RNA: B1 RNA with A25U, U26A, G29C, U30C, C31A
DNA 1: CAATCTGAATTCCGGTCTCCC
DNA 2: TGGTGGCTACGACGGGATT
B29: AACCGUU (DNA:RNA)
RNA: B1 RNA with U26A, G27C, C31U
DNA 1: CAATCTGAATTCCGGTCTCCC
DNA 2: TGGTGGCTACGACGGGATT
B30: GGAGCAA (DNA:RNA)
RNA: GGGAGACCGGAAUUCAGAUUGUCCGGAGCAAUUAAAUCCCGUCGUAGCCACCA
DNA 1: CAATCTGAATTCCGGTCTCCC
DNA 2: TGGTGGCTACGACGGGATT
B31: CAAUCCA (DNA:RNA)
RNA: B30 RNA with G25C, G26A, G28U, A30C
DNA 1: CAATCTGAATTCCGGTCTCCC
DNA 2: TGGTGGCTACGACGGGATT

Residue numbers refer to the chain shown, from its start. The list shows a part of the results.

The assay deals with T1, RBFOX1 RRM. In words: EMSA; HiTS-Eq, 1 nM pool, 10 min; buffer printed only for the single-RNA assays: 10 mM Tris pH 7.5, 150 mM NaCl, 3.4 mM EDTA, 0.001% NP-40, 30 C. As to conditions: tags: His6 N-terminal (pET28a); label: 5' 32P. The gist of the method: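 These values rest on relative association constants, computed from read-count changes of each RNA species versus the control reaction and normalised to the cognate motif. Reads came from free RNA recovered by 8% native PAGE after purified RbFox RRM (wild type or mutant) at increasing concentrations was equilibrated for 10 min in 50 µL with 1 nM of a 5′-radiolabelled pool with 7 randomized nucleotides and DNA-annealed flanks.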
For orientation: Mobility shift assays separate free from complexed probe on a gel.
Turning to B1, the binding signal is 0.0134 KA relative to UGCAUGU. Regarding B2, the binding signal is 0.004 KA relative to UGCAUGU. B3: the binding signal was 0.0139 KA relative to UGCAUGU. On to B4, for which the binding signal was 0.00784 KA relative to UGCAUGU. Consider B5, for which the binding signal is 0.0168 KA relative to UGCAUGU. As for B6, the binding signal was 0.000472 KA relative to UGCAUGU. On to B7, for which the binding signal was 0.0124 KA relative to UGCAUGU. As for B8, the binding signal is 0.00437 KA relative to UGCAUGU.

Regarding B9, the binding signal was 0.00616 KA relative to UGCAUGU. Regarding B10, the binding signal was 0.0192 KA relative to UGCAUGU. Turning to B11, the binding signal was 0.00792 KA relative to UGCAUGU.

Turning to B12, the binding signal is 0.0101 KA relative to UGCAUGU. Take B13: the binding signal was 0.00474 KA relative to UGCAUGU. Regarding B14, the binding signal was 0.0144 KA relative to UGCAUGU. With B15, the binding signal is 0.0108 KA relative to UGCAUGU. As to B16, the binding signal was 0.0236 KA relative to UGCAUGU. B17: the binding signal was 0.0187 KA relative to UGCAUGU. On to B18, for which the binding signal was 0.0145 KA relative to UGCAUGU.

In the case of B19, the binding signal was 0.00744 KA relative to UGCAUGU. Regarding B20, the binding signal is 0.0148 KA relative to UGCAUGU. Consider B21, for which the binding signal is 0.00104 KA relative to UGCAUGU. In the case of B22, the binding signal is 0.0304 KA relative to UGCAUGU. For the molecule B23, the binding signal is 0.0167 KA relative to UGCAUGU. As to B24, the binding signal was 0.0159 KA relative to UGCAUGU. With B25, the binding signal is 0.0185 KA relative to UGCAUGU.

Consider B26, for which the binding signal was 0.0032 KA relative to UGCAUGU. On to B27, for which the binding signal was 0.00573 KA relative to UGCAUGU. Turning to B28, the binding signal is 0.00357 KA relative to UGCAUGU. Take B29: the binding signal was 0.0018 KA relative to UGCAUGU. In the case of B30 it was 0.0102 KA relative to UGCAUGU; in that of B31, 0.000796 KA relative to UGCAUGU.
